Laboratory results taken from paper PMC12820563, “FoxP3 forms a head-to-head dimer in vivo and stabilizes its multimerization on adjacent microsatellites”.
The other results are listed elsewhere or left out.

Molecular target: T1, MBP-FoxP1dN (Mus musculus, UniProt P58462 326-579)
T1 sequence: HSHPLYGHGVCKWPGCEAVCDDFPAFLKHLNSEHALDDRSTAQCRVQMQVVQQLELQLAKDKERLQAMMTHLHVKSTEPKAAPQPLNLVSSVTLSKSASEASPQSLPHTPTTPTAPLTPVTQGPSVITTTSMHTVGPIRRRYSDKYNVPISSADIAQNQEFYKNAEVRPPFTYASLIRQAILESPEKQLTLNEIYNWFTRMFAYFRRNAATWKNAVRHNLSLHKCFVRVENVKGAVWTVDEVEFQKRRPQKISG
Experiment: PD-seq (MBP pull-down with sequencing); 20 mM Tris-HCl pH 7.5, 100 mM NaCl, 1.5 mM MgCl2, 0.4 uM protein, 0.1 uM dsDNA library, 30 min, room temperature, amylose pull-down; high values mean tight binding
Conditions: protein: recombinant; tags: His6-MBP; chain copies: 2; dsDNA, one strand shown
Summary of the method: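 Binding is the reads-per-million enrichment of pull-down relative to input, pooled across replicates. For this, 0.4 µM His6-MBP-tagged mouse FoxP3 or FoxP1 fragment lacking the N-terminus, made in E. coli, was incubated with 0.1 µM Klenow-filled double-stranded degenerate DNA library for 30 min at room temperature in Tris pH 7.5 buffer with NaCl and MgCl2. Complexes bound to amylose resin were washed three times before proteinase K released the DNA for PCR barcoding and Illumina sequencing.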

Sequence	binding signal
GATGATTGTTCTCCCAGCTGATGAATTTGACAAGTCGAGTAAACAAATTTTCCTAATCTTTCTGTTCAAGCGCCATCTAC	0.82 RPM ratio (pull-down/input)
GATGATTGTTCTCCCAGCTGATGAATTTTCTTCGTCGAGTAAACAAATTTTCCTAATCTTTCTGTTCAAGCGCCATCTAC	0.923 RPM ratio (pull-down/input)
GATGATTGTTCTCCCAGCTGATGAATTGACCCGGTCGAGTAAACAAATTTTCCTAATCTTTCTGTTCAAGCGCCATCTAC	0.81 RPM ratio (pull-down/input)
GATGATTGTTCTCCCAGCTGATGAATTCGATTTCTCGAGTAAACAAATTTTCCTAATCTTTCTGTTCAAGCGCCATCTAC	0.839 RPM ratio (pull-down/input)
GATGATTGTTCTCCCAGCTGATGAATTTAGGTTGTCGAGTAAACAAATTTTCCTAATCTTTCTGTTCAAGCGCCATCTAC	1.11 RPM ratio (pull-down/input)
GATGATTGTTCTCCCAGCTGATGAATTAAGATTGTCGAGTAAACAAATTTTCCTAATCTTTCTGTTCAAGCGCCATCTAC	1.02 RPM ratio (pull-down/input)
GATGATTGTTCTCCCAGCTGATGAATTTGTTCGATCGAGTAAACAAATTTTCCTAATCTTTCTGTTCAAGCGCCATCTAC	1.1 RPM ratio (pull-down/input)
GATGATTGTTCTCCCAGCTGATGAATTTGATCCTTCGAGTAAACAAATTTTCCTAATCTTTCTGTTCAAGCGCCATCTAC	0.825 RPM ratio (pull-down/input)
GATGATTGTTCTCCCAGCTGATGAATTAAAGGCTTCGAGTAAACAAATTTTCCTAATCTTTCTGTTCAAGCGCCATCTAC	0.942 RPM ratio (pull-down/input)
GATGATTGTTCTCCCAGCTGATGAATTTTTGGCTTCGAGTAAACAAATTTTCCTAATCTTTCTGTTCAAGCGCCATCTAC	0.917 RPM ratio (pull-down/input)
GATGATTGTTCTCCCAGCTGATGAATTGGCCGTATCGAGTAAACAAATTTTCCTAATCTTTCTGTTCAAGCGCCATCTAC	0.861 RPM ratio (pull-down/input)
GATGATTGTTCTCCCAGCTGATGAATTCGGATTATCGAGTAAACAAATTTTCCTAATCTTTCTGTTCAAGCGCCATCTAC	0.894 RPM ratio (pull-down/input)
GATGATTGTTCTCCCAGCTGATGAATTGTGATGATCGAGTAAACAAATTTTCCTAATCTTTCTGTTCAAGCGCCATCTAC	1.42 RPM ratio (pull-down/input)
GATGATTGTTCTCCCAGCTGATGAATTAGACTATTCGAGTAAACAAATTTTCCTAATCTTTCTGTTCAAGCGCCATCTAC	0.965 RPM ratio (pull-down/input)
GATGATTGTTCTCCCAGCTGATGAATTTTCATATTCGAGTAAACAAATTTTCCTAATCTTTCTGTTCAAGCGCCATCTAC	1.06 RPM ratio (pull-down/input)
GATGATTGTTCTCCCAGCTGATGAATTGTCGATTTCGAGTAAACAAATTTTCCTAATCTTTCTGTTCAAGCGCCATCTAC	1.08 RPM ratio (pull-down/input)
GATGATTGTTCTCCCAGCTGATGAATTACCGCCATCGAGTAAACAAATTTTCCTAATCTTTCTGTTCAAGCGCCATCTAC	1.01 RPM ratio (pull-down/input)
GATGATTGTTCTCCCAGCTGATGAATTACTCCCATCGAGTAAACAAATTTTCCTAATCTTTCTGTTCAAGCGCCATCTAC	1.05 RPM ratio (pull-down/input)
GATGATTGTTCTCCCAGCTGATGAATTGCCATTGTCGAGTAAACAAATTTTCCTAATCTTTCTGTTCAAGCGCCATCTAC	1.09 RPM ratio (pull-down/input)
GATGATTGTTCTCCCAGCTGATGAATTCTTAACTTCGAGTAAACAAATTTTCCTAATCTTTCTGTTCAAGCGCCATCTAC	0.898 RPM ratio (pull-down/input)

Sequence	binding signal
GATGATTGTTCTCCCAGCTGATGAATTGCTTGGATCGAGTAAACAAATTTTCCTAATCTTTCTGTTCAAGCGCCATCTAC	1 RPM ratio (pull-down/input)
GATGATTGTTCTCCCAGCTGATGAATTGTCCGAATCGAGTAAACAAATTTTCCTAATCTTTCTGTTCAAGCGCCATCTAC	1.06 RPM ratio (pull-down/input)
GATGATTGTTCTCCCAGCTGATGAATTAGAACGGTCGAGTAAACAAATTTTCCTAATCTTTCTGTTCAAGCGCCATCTAC	0.922 RPM ratio (pull-down/input)
GATGATTGTTCTCCCAGCTGATGAATTTACCGCGTCGAGTAAACAAATTTTCCTAATCTTTCTGTTCAAGCGCCATCTAC	1.17 RPM ratio (pull-down/input)
GATGATTGTTCTCCCAGCTGATGAATTTGATTCTTCGAGTAAACAAATTTTCCTAATCTTTCTGTTCAAGCGCCATCTAC	0.89 RPM ratio (pull-down/input)
GATGATTGTTCTCCCAGCTGATGAATTCTGACGGTCGAGTAAACAAATTTTCCTAATCTTTCTGTTCAAGCGCCATCTAC	0.82 RPM ratio (pull-down/input)
GATGATTGTTCTCCCAGCTGATGAATTTAAGGCTTCGAGTAAACAAATTTTCCTAATCTTTCTGTTCAAGCGCCATCTAC	0.888 RPM ratio (pull-down/input)
GATGATTGTTCTCCCAGCTGATGAATTGCCGGATTCGAGTAAACAAATTTTCCTAATCTTTCTGTTCAAGCGCCATCTAC	0.886 RPM ratio (pull-down/input)
GATGATTGTTCTCCCAGCTGATGAATTGGCTACCTCGAGTAAACAAATTTTCCTAATCTTTCTGTTCAAGCGCCATCTAC	0.813 RPM ratio (pull-down/input)
GATGATTGTTCTCCCAGCTGATGAATTGTTCAAGTCGAGTAAACAAATTTTCCTAATCTTTCTGTTCAAGCGCCATCTAC	1.09 RPM ratio (pull-down/input)
GATGATTGTTCTCCCAGCTGATGAATTTCCAGAGTCGAGTAAACAAATTTTCCTAATCTTTCTGTTCAAGCGCCATCTAC	0.756 RPM ratio (pull-down/input)
GATGATTGTTCTCCCAGCTGATGAATTGGGCCGGTCGAGTAAACAAATTTTCCTAATCTTTCTGTTCAAGCGCCATCTAC	0.758 RPM ratio (pull-down/input)
GATGATTGTTCTCCCAGCTGATGAATTCTCGCGTTCGAGTAAACAAATTTTCCTAATCTTTCTGTTCAAGCGCCATCTAC	0.935 RPM ratio (pull-down/input)
GATGATTGTTCTCCCAGCTGATGAATTCACGCCCTCGAGTAAACAAATTTTCCTAATCTTTCTGTTCAAGCGCCATCTAC	0.928 RPM ratio (pull-down/input)
GATGATTGTTCTCCCAGCTGATGAATTGATTGAGTCGAGTAAACAAATTTTCCTAATCTTTCTGTTCAAGCGCCATCTAC	1.04 RPM ratio (pull-down/input)
GATGATTGTTCTCCCAGCTGATGAATTTTCAGTCTCGAGTAAACAAATTTTCCTAATCTTTCTGTTCAAGCGCCATCTAC	0.849 RPM ratio (pull-down/input)
GATGATTGTTCTCCCAGCTGATGAATTCTCGTTTTCGAGTAAACAAATTTTCCTAATCTTTCTGTTCAAGCGCCATCTAC	1.04 RPM ratio (pull-down/input)
GATGATTGTTCTCCCAGCTGATGAATTGACAAAATCGAGTAAACAAATTTTCCTAATCTTTCTGTTCAAGCGCCATCTAC	1.71 RPM ratio (pull-down/input)
GATGATTGTTCTCCCAGCTGATGAATTGGGGCTATCGAGTAAACAAATTTTCCTAATCTTTCTGTTCAAGCGCCATCTAC	0.865 RPM ratio (pull-down/input)
GATGATTGTTCTCCCAGCTGATGAATTGGTGCGTTCGAGTAAACAAATTTTCCTAATCTTTCTGTTCAAGCGCCATCTAC	1.04 RPM ratio (pull-down/input)
